# Screen size: about 150,000 compounds; about 540 (0.36%) showed an effect of 50% or more. This is one part of the list.
# Test system: Plasmodium falciparum
# Experiment: Primary screen in NF54 nanoGlo assay, in single point, at 2uM, 72h; a lower Z score goes with more inhibition
# Type: functional, Erythrocyte
# Settings: timepoint 72 hour
SMILES,% Inhibition,Z score
CC(C)CC(=O)N1CCc2ccc(OCc3ccc(C(=O)NC4CC4)o3)cc2[C@@H]1c1ccc(F)cc1,-18%,1.67
CN1CCC(n2nc(-c3ccncc3)nc2-c2n[nH]c3c2CCC3)CC1,1%,-0.26
Cc1ccc(-c2ccno2)cc1S(=O)(=O)N1C[C@@H]2CC[C@H]1CN(C)C2,-4%,0.57
Cn1ncc2c(N3CCCCC3)nc(C(=O)N3CCN(c4ccc(Cl)cc4)CC3)nc21,-11%,1.88
Cc1noc2ncnc(N3CCC[C@H]3c3cnn(C)c3)c12,-7%,0.7
Cc1ccc(CNC(=O)N(C)CC2CCCCC2O)cn1 (stereo not given),-3%,0.27
O=C(NCCN1CC[C@H](N2CCCCCC2)C1=O)c1ccco1,-3%,0.34
O=S(=O)(c1ccc(Cl)s1)N1CC(OCCO)C1,-5%,0.72
Cc1occc1-c1cc(NC(=O)N[C@H]2CCCN(S(C)(=O)=O)C2)no1,-10%,2.01
Cn1nc2n(c1=O)CCC(NC(=O)C1CC=CCC1)CC2 (stereo not given),-8%,1.2
COCCC[C@]1(C(=O)O)CCCN(c2nccc(N)n2)C1,-6%,1.08
Cc1noc(C)c1CN(C)C(=O)NCCOc1ccc2c(c1)OCO2,-1%,0.09
O=C(Cc1ccc(N(Cc2cccc(F)c2)C(=O)c2cccc(F)c2)cc1)NCCN1CCCC1,3%,-0.41
O=C1CC[C@@]2(CCCO2)CCN1Cc1cccc(Oc2ccccc2)c1,-7%,1.02
CCOC(=O)c1cnn(CCOc2ccccc2)c1N,-16%,2.41
CN1CCN(C(=O)NC(C)(C)C)[C@@H](CNC(=O)OC(C)(C)C)C1,-9%,1.22
CCC(C)C(C(=O)O)n1c[n+]([O-])c(-c2ccccc2)c1-c1ccccc1 (stereo not given),1%,-0.07
O=C(c1cccnc1O)N1CC(Oc2ccccc2F)C1,-17%,1.81
COc1ccc(-c2ocnc2C(=O)Nc2ccccc2CCc2nc3ccccc3[nH]2)cc1OC,-7%,0.86
CS(=O)(=O)CCCN1CCC[C@H](c2cc(F)ccc2F)C1,-6%,0.81
CCCN1C(=O)N[C@@H](CC(=O)N2CCC(C(=O)N3CCCC3)CC2)C1=O,-7%,1.19
CC(=O)N(C)C1CCN(c2cc(C(C)C)nc(N3CCC(N(C)C(C)=O)CC3)n2)CC1,8%,-0.87

SMILES,% Inhibition,Z score
COCCOCCS(=O)(=O)Nc1c(O)cccc1Cl,2%,-0.2
CCS(=O)(=O)C[C@H](C)NC(=O)c1cccnc1,-14%,1.58
CC(C)(C)OC(=O)N1C(=O)CC[C@H]1C(=O)OCc1ccccc1,-9%,1.28
COc1ccccc1[C@H](CNCc1c[nH]nc1C)N1CCCC1,-6%,0.93
COc1ccc(CN2C(=O)N[C@@H](CC(=O)Nc3ccc(F)c(F)c3F)C2=O)cc1OC,-10%,1.34
CC(C)N(Cc1ccn(-c2ccccc2)n1)C1CCCC1,-6%,0.91
Cc1noc(C)c1NC(=O)N1CC(C)OC(C)C1 (stereo not given),-4%,0.42
O=C(CC(=O)Nc1ccc(F)c(Cl)c1)NCc1cc(C2CC2)[nH]n1,-6%,0.73
ON(Cn1nnc2ccccc21)Cn1nnc2ccccc21,-5%,0.67
O=C(Cn1c2c(c(=O)n3nc(-c4ccccc4)nc13)CCC2)Nc1cc(F)ccc1F,2%,-0.24
O=C(Cc1cccc(F)c1)N[C@H]1CC12CC2,-8%,0.77
CC1C(c2ccccc2)CCN1C(=O)Cn1ncn2nccc2c1=O (stereo not given),-13%,1.41
O=C1CS(=O)(=O)N(Cc2cc(C3CC3)no2)c2ccccc21,-7%,1.08
CC(C)CN(CCC(=O)NCCN1CCOCC1)c1nc(-c2ccccc2Cl)nc2ccccc12,-9%,1.23
Cc1ccc(CN(C(=O)c2ccccc2C)c2cccc(CC(=O)NCCN3CCCC3)c2)cc1,-9%,1.17
Cc1cc(C)cc(CN2CCCn3nc(CNC(=O)C4CCC4)cc3C2)c1,-5%,1
COCC1CN(Cc2cncs2)CC(C)O1 (stereo not given),-2%,0.25
O=S(=O)(c1cn[nH]c1)N1CCC[C@H](c2nnc[nH]2)C1,9%,-1.21
CC(C)N(CCc1nccs1)C(=O)Cc1cccc(O)c1,-8%,0.85
O=C(Nc1nnc(-c2cccs2)o1)C(c1ccccc1)c1ccccc1,0%,0.03
CCOC1CN(C(=O)[C@@](C)(C#N)CC)C1,6%,-1.05
CC[C@@H](C(=O)NCc1ccc2c(c1)OCO2)n1c(Cc2ccccc2)nc2cc(Cl)c(Cl)cc21,-3%,0.58

SMILES,% Inhibition,Z score
O=c1[nH]c2nonc2nc1Nc1cccc(Cl)c1,7%,-0.88
O=C1C[C@@H](C(=O)N2CCC[C@H]2C(F)(F)F)NC(=O)N1,-7%,1.41
CC(C)(C)OC(=O)N1CCCC[C@H](NC(=O)Nc2ccc3c(c2)OCCO3)C1,5%,-0.66
C[C@@H](c1cccc(-c2nccn2Cc2ccoc2)c1)N(C)C,-8%,1.03
CCc1cnc(CCNC(=O)N[C@@H](C)C(=O)N(C)C)s1,-12%,1.58
COc1cc(C(=O)N2C[C@H](c3ccc(C)cc3)[C@@H](N(C)C)C2)ccn1,-8%,1.43
NS(=O)(=O)CCCCS(=O)(=O)N1Cc2ccccc2CO1,-15%,1.9
C[C@@H]1COCCN(C(=O)c2csc(C3CC3)n2)C1,-1%,0.15
COC(=O)N(C)CC(=O)NCC1CCCC1,10%,-1.31
CN(Cc1ccnn1C)c1nccn(C)c1=O,-4%,0.56
Cn1c(CNc2cncc(-c3cccs3)n2)nnc1C1CC1,-9%,1.36
COCCc1n[nH]c([C@H](C)Oc2ccc(Cl)cc2C)n1,-5%,0.76
CC(NC(=O)c1cc(C#N)c[nH]1)C(O)c1ccc(F)c(F)c1 (stereo not given),-5%,0.82
COc1ccc(N2CCN(CN3C(=O)C4(OCCO4)c4ccccc43)CC2)cc1,-6%,0.71
Cc1ncsc1CCc1nc(-c2ccc3[nH]cnc3c2)no1,-8%,1.44
CC1(C)[C@H](Cc2cc(CC3CCCCC3)on2)C[C@@H]1NC(=O)C1CCC1,25%,-2.86
COc1ccc(C[C@@]2(CCC(=O)N3CCCCC3)CCC(=O)N2)cc1,4%,-0.58
CS(=O)(=O)c1ccc2nc(NC(=O)c3cc4n(n3)CCCO4)sc2c1,-12%,1.87
CC1(C)CCc2nc(NC(=O)c3cnc4ccccc4n3)ncc2C1,-7%,0.83
C[C@H](Nc1ncnc2ccccc12)c1ccc(N2CCCS2(=O)=O)cc1,-12%,2.06
O=C(C[C@H]1COCCN1C(=O)c1ccc2c(c1)OCO2)c1ccco1,-3%,0.49
COC(=O)[C@@H](NC(=O)c1cc(CCc2ccccc2)no1)C(C)C,6%,-0.76

SMILES,% Inhibition,Z score
Cc1ccc2c(=O)c(C(=O)c3ccc(F)cc3)cn(Cc3ccccc3Cl)c2n1,-2%,0.19
NC(=O)C1CC2CCCCC2N1c1ncnc2scc(-c3ccccc3)c12 (stereo not given),-7%,0.82
COc1ccnc(N2CC[C@@]3(O)CCN(CC(=O)N(C)C)C[C@H]3C2)n1,-11%,1.88
Cc1cccc2c1CCN2C(=O)NCc1c(C)nn(C)c1C,-8%,0.85
O=C(NC[C@H](NC(=O)C1CC=CC1)C1CCCCC1)C1CC=CC1,-11%,1.14
COc1ccc(CCNC(=O)N(C)Cc2noc(C3CCCC3)n2)cc1,-26%,2.39
CC(C)c1nnc(NC(=O)c2cc(C(F)(F)F)c[nH]c2=O)s1,2%,-0.38
Cc1ccc(S(=O)(=O)N2CCC(N3CCN(CCO)CC3)CC2)cc1,-7%,1.03
CCCN(C(=O)c1cnnc(C)c1)C1CCN(c2cc(C)nc(C)n2)CC1,-8%,1
CCN(CC)c1cc(CCC(=O)NCC(C)C)ccn1,-3%,0.43
CCc1nc(CNS(=O)(=O)c2ccc(-c3ccno3)o2)cs1,1%,-0.22
O=C(NCC1(CO)CCOCC1)Nc1ccnn1Cc1ccc(Cl)c(F)c1,6%,-0.8
C[C@H]1CCCN(C(=O)c2cnc(OCC3CC3)cn2)CC1,-17%,2.18
Cc1nn(C)c2nc(NC[C@H]3CN(C)CCN3C)sc12,-3%,0.44
CN(C)c1n[nH]c(NS(=O)(=O)CCc2cccc(F)c2)n1,-9%,1.69
CC1CCCC(OCC(=O)Nc2cnccn2)C1 (stereo not given),-7%,1.34
Cc1noc([C@H]2CCCN(C(=O)c3nc(C(C)C)n(-c4ccccc4F)n3)C2)n1,1%,-0.08
Cc1csc(CCNC(=O)[C@H]2CCS(=O)(=O)C2)n1,-17%,1.79
O=C(c1cc2n(n1)CCN(Cc1ccc(Cl)cc1)C2=O)N1CCc2ccccc2C1,-13%,1.55

# Reference: ChEMBL document CHEMBL4888484, “Replenishing the malaria drug discovery pipeline: Screening and hit evaluation of the MMV Hit Generation Library 1 (HGL1) against asexual blood stage Plasmodium falciparum ,using a nano luciferase reporter read-out” (2022)
